The values that follow come from the supplement of paper PMC11417369.

This is one part of the list.

The assay deals with PF3D7_0420300 AP2 domain 1 (GST-tagged). The experiment in a line: gcPBM binding intensity (ln(normalized median fluorescence intensity)); higher = stronger DNA binding. The procedure, abridged:
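Probes on an Agilent 4 × 180k array were primer-extended, double-stranded and 36 bp long, taken from intergenic genomic regions, with negative controls added. GST-tagged P. falciparum DNA-binding domains from E. coli, about 25 μg on average, were applied to the array for 1 h in 1× PBS containing 1% milk, 0.2 mg/ml BSA, 0.5% salmon testes DNA and 0.03% Triton X-100. Binding intensity, obtained after Alexa488 anti-GST antibody detection and a 488 nm scan, is the highest Masliner-normalised natural-log median intensity across replicate spots of either probe orientation.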
Regarding “TACCTAAATAAATGGACACACACATATATATATATA [CACACA_site8407]”, the “gcPBM binding intensity (ln)” value came to 9.51. As for “TTATAGCCTGTGAAGAGTACATTTTTATTTTTTATT [XGTACX_site4105]”, the figure is 9.31.

On to “TATTTTTAAATATAAAGTACTTATATTAACTACGAA [XGTACX_site1524]”, for which the “gcPBM binding intensity (ln)” value amounted to 8.83. For the sequence “TTATACTGTTTCAGAAAAATAAAGAATGAAAGTATT [XGTACX_negctrl_site230]”, the “gcPBM binding intensity (ln)” value worked out at 9.23. Regarding “TTTTTATATTCCCCCAGTACATATATAATAGTAGTA [XGTACX_site7927]”, the “gcPBM binding intensity (ln)” value stood at 9.44. As for “TGCAACAAAATAAACACACACACACCCCCACAAAAA [CACACA_site3388]”, the figure is 10.3.

In the case of “AATAAAAAAATAAAATGTACATACAAATAAATAAAT [XGTACX_site5153]”, the “gcPBM binding intensity (ln)” value came out at 9.63.

Turning to “TATTTTAATGAAGCATTTAAGGGAAAAAAAAAAAAA [TGCATGCA_negctrl_site606]”, the “gcPBM binding intensity (ln)” value was 8.85. Take “TTGTATACATAAAATGGTACAGAATATATAATTCTA [XGTACX_site7236]”: the “gcPBM binding intensity (ln)” value came out at 9.11. As for “ATAAGATGATGGAACTGTAATATATATATATATATA [CACACA_negctrl_site839]”, the “gcPBM binding intensity (ln)” value stood at 9.19. As for “TTTAAGAGTTGCACACGTACAAAAAAAAAAAAAAAA [XGTACX_site7406]”, the figure is 8.86. Turning to “GTATACCAACATATTATACACACCTTTATATTTTTT [CACACA_site2153]”, the “gcPBM binding intensity (ln)” value came out at 9.6. As for “TTAATTAAAATTTATACATGCATAAAAGAAATACAC [TGCATGCA_site537]”, the figure is 9.45.

For the sequence “ATTACATGTTACTTAACACACATCTGGTGAAATAAT [CACACA_site171]”, the “gcPBM binding intensity (ln)” value was 9.46. As for “ATTTTTTTCTTTTCTTTTTTCTTTTTTTTTTTTGGT [CACACA_negctrl_site1146]”, the “gcPBM binding intensity (ln)” value was found to be 9.56. As for “GTAATGAAACATTGCACACATATAATAATATAATAT [CACACA_site1422]”, the figure is 9.59. As for “TATATTACTTAAAATACACACCATGGAAAAGTTTTA [CACACA_site5443]”, the figure is 9.38; as for “TTCTGAACAAAATTATATATTTATTTTTATTTTCAT [CACACA_negctrl_site422]”, 9.18. Turning to “ATTATTTTTCTATGTGTGCACGTGTGGAATGTGTCT [GTGCAC_site9507]”, the “gcPBM binding intensity (ln)” value was 9.63.

In the case of “TTTTTATTTTTTTTATGTACACAAATGATATACATA [XGTACX_site5910]”, the “gcPBM binding intensity (ln)” value amounted to 9.23.

With “AGGATACACGGACACACACACATATAGATTTATATA [CACACA_site6552]”, the “gcPBM binding intensity (ln)” value came to 9.93. As for “TTTCTTTTTTTTTTTTTTTCTGGCTTTTTCTCTTTT [TGCATGCA_negctrl_site599]”, the figure is 9.26; as for “TCTGTAGTTTTTTACAGTACTTTTAGGTAATACATA [XGTACX_site7417]”, 9.11; as for “AAAACACCCAAACACACACACACATATATATATATA [CACACA_site9119]”, 10.1. In the case of “TTCTTGTATTTTCATAGTACATATAATGTCGTGTTA [XGTACX_site7714]”, the “gcPBM binding intensity (ln)” value was found to be 9.42.

Turning to “AGAAAAAAAATATACACACATACGATCATACATATG [CACACA_site2171]”, the “gcPBM binding intensity (ln)” value is 9.71. As for “ACCTCTTTGAAATATACACACTAAACATATCAACTT [CACACA_site5372]”, the figure is 9.53. Turning to “TACATAGAGTTTGTTTGTACTCATATGCGTAAATTC [XGTACX_site4810]”, the “gcPBM binding intensity (ln)” value is 9.06. As for “CATTATGTCATAAATGCACACATATACATTGTTTTG [CACACA_site8118]”, the figure is 9.49.

“AATAAATTATTTATTGCATGTAATATGAATATTTTT [TGCATGCA_site798]”: the “gcPBM binding intensity (ln)” value came to 8.99. As for “ATATATTTTATTCCTATATATATATATATATATATA [GTGCAC_negctrl_site556]”, the figure is 9.27; as for “TAATGTATGAAATAAACACACAAGTAAGTACATAAA [CACACA_site2451]”, 9.62; as for “ATACAACATATATATACACACATATAATAATAATAA [CACACA_site3367]”, 9.79. As for “AAACCAATAAAAAACTGTACAAAAATTATATGAGAT [XGTACX_site1269]”, the figure is 9.65. As for “TAATATAAAGGAAAAGAAAAGAAAAGAATATACAAT [CACACA_negctrl_site1369]”, the figure is 9.66; as for “GAATAAAAAATATATGTGCACATATAAACTTAAAAT [GTGCAC_site9554]”, 9.46. In the case of “AAATAACACATATATACACACATATAAATATAATAT [CACACA_site2692]”, the “gcPBM binding intensity (ln)” value is 9.94. As for “AAAAAAAAAAAAAAAATACACACGTGAATGTATTGT [CACACA_site1320]”, the figure is 9.55; as for “ATAGGACCTATGTGCCCATGGGTACATTAAAAAAAA [CACACA_negctrl_site1465]”, 8.86. As for “AAAAAACTTATAATCACACATATGATTAAATATTAA [CACACA_site4956]”, the figure is 9.22; as for “AATTATTTTTTGTATGAACACACAACTTAATTATGA [CACACA_site8774]”, 9.36; as for “TTGAATGTAGTTAAATGTACATGTAATATATAAAAA [XGTACX_site1250]”, 9.13. As for “TTTGTTTTAAATCGAAGTACACATAATTATATTTTA [XGTACX_site1541]”, the figure is 9.08; as for “ATTTTTTTTTTTATTTTCTTTGAGATTATCTTAATT [CACACA_negctrl_site1209]”, 9.29; as for “TTAATTTGTTCTTACACACACATATATATATATTTA [CACACA_site1185]”, 9.89. As to “ATATTTTAAATGTTATGTACACATTTGTTGTTTACA [XGTACX_site7353]”, the “gcPBM binding intensity (ln)” value amounted to 9.36.

In the case of “AATATTATTATTATTACACACACAATTATATTTACC [CACACA_site8061]”, the “gcPBM binding intensity (ln)” value was 9.93.

Turning to “TATATATATACATAATGTACATTTTATAAATTTACA [XGTACX_site5283]”, the “gcPBM binding intensity (ln)” value amounted to 9.07.

As for “ACTACCTATATTTAAGCATGCAAAAAATAAAAATAT [TGCATGCA_site238]”, the “gcPBM binding intensity (ln)” value worked out at 9.23. Take “ATAAATTGTTCTTTTTGTGTAAACAGAATATTAAAA [CACACA_negctrl_site1022]”: the “gcPBM binding intensity (ln)” value amounted to 8.97.

With ATATATATAATATAGGTGCACTACTTATTTAAAAAA, the “gcPBM binding intensity (ln)” value came out at 9.09. As for “TAAAAATGTAGACACACACACATATATATATTTAAT [CACACA_site1528]”, the figure is 9.9; as for “AAATAATTAGCTATTTGTACATATATACATATTTAT [XGTACX_site4652]”, 9.36; as for “TTAATAACAAAATAAACACACATATATAAATCCACA [CACACA_site1590]”, 9.92. As for “TGTGTTAAATGTAATAGTGAATAAATAATTTTAACA [TGCATGCA_negctrl_site161]”, the figure is 9.22. With “AAAATGAATATAATGACGCACACTTAAAATTGTTAA [CACACA_site2509]”, the “gcPBM binding intensity (ln)” value came to 9.29.
